Certain results were filed several times, with different values. The list is limited to them. There may be further records. Results that share an entry are repeats (runs, samples, wells, individuals or studies). A tag in brackets gives the origin of a value. Letters count within one entry. A date in brackets names the month of the test.
Tests used:
Assay type in all cases: toxicity, cell-based
[1] = system: Fibroblast; assay: Multiplex assay against human fibroblast
Summary of the method: (§1)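 Phenotypes for tubulin, mitochondrial mass and membrane permeability are expressed as per cents of healthy-nucleus cells. Cells were stained live at seeding with Hoechst33342, BioTracker Green Microtubule Cytoskeleton Dye, MitoTracker Red and Annexin V Alexa Fluor 680, then imaged after compound addition on a CQ1 microscope at 37°C and 5% CO2. Machine-learning gating in CellPathfinder separated Hoechst high-intensity objects from normal cells, divided normal cells by nuclear state (healthy, pyknosed, fragmented) and divided pyknosed cells into mitotic or apoptotic.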

[2] = system: HEK-293T; assay: Multiplex assay against HEK293T; conditions: human; summary of the method: as §1;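 on Population Tubulin-Different-Phenotype (%): share of the cells with healthy nuclei that show this phenotype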
[3] = system: U2OS; assay: Multiplex assay against U2OS; conditions: human; summary of the method: as §1
[4] = 12 h, 1 µM, compound concentration 1 uM, replicate 1
[5] = 12 h, 10 µM, compound concentration 10 uM, replicate 1
[6] = 24 h, 1 µM, compound concentration 1 uM, replicate 1
[7] = 24 h, 1 µM, compound concentration 1 uM, replicate 2
[8] = 24 h, 10 µM, compound concentration 10 uM, replicate 1
[9] = 12 h, 1 µM, compound concentration 1 uM, replicate 2
[10] = 12 h, 10 µM, compound concentration 10 uM, replicate 2
[11] = 24 h, 10 µM, compound concentration 10 uM, replicate 2

Question: Which results are given for CNC(=O)c1ccc(Nc2ncc(C(F)(F)F)c(NCc3nccnc3N(C)S(C)(=O)=O)n2)cc1 [DEFACTINIB]?
Answer: Population Tubulin-Different-Phenotype (%) [1, 4]: 6% [compound entry A, 2021-10] and 33% [compound entry B, 2021-10]; Population Tubulin-Different-Phenotype (%) [1, 5]: 36% [compound entry A, 2021-10] and 7% [compound entry B, 2021-10]; Population Membrane Permeable-Phenotype (%) [1, 6]: 5% [compound entry A, 2021-10] and 19% [compound entry B, 2021-10]; Population Tubulin-Different-Phenotype (%) [1, 6]: 7% [compound entry A, 2021-10] and 43% [compound entry B, 2021-10]; Population Apoptotic (%) [1, 7]: 0% [compound entry A, 2021-10] and 60% [compound entry B, 2021-10]; Population Membrane Permeable-Phenotype (%) [1, 7]: 0% [compound entry A, 2021-10] and 50% [compound entry B, 2021-10]; Population Pyknosed Nuclei (%) [1, 7]: 4% [compound entry A, 2021-10] and 19% [compound entry B, 2021-10]; Population Tubulin-Different-Phenotype (%) [1, 7]: 5% [compound entry A, 2021-10] and 20% [compound entry B, 2021-10]; Population Mitochondria Different-Phenotype (%) [1, 8]: 7% [compound entry A, 2021-10] and 1% [compound entry B, 2021-10]; Population Tubulin-Different-Phenotype (%) [1, 8]: 49% [compound entry A, 2021-10] and 4% [compound entry B, 2021-10]; Population Tubulin-Different-Phenotype (%) [2, 4]: 5% [compound entry A, 2021-10] and 18% [compound entry B, 2021-10]; Population Tubulin-Different-Phenotype (%) [2, 9]: 10% [compound entry A, 2021-10] and 42% [compound entry B, 2021-10]; Population Tubulin-Different-Phenotype (%) [2, 5]: 26% [compound entry A, 2021-10] and 2% [compound entry B, 2021-10]; Population Apoptotic (%) [2, 10]: 21% [compound entry A, 2021-10] and 3% [compound entry B, 2021-10]; Population Tubulin-Different-Phenotype (%) [2, 10]: 48% [compound entry A, 2021-10] and 10% [compound entry B, 2021-10]; Population Fragmented Nuclei (%) [2, 7]: 22% [compound entry A, 2021-10] and 5% [compound entry B, 2021-10]; Population Mitochondria Different-Phenotype (%) [2, 7]: 2% [compound entry A, 2021-10] and 15% [compound entry B, 2021-10]; Population Tubulin-Different-Phenotype (%) [2, 7]: 11% [compound entry A, 2021-10] and 62% [compound entry B, 2021-10]; Population Mitochondria Different-Phenotype (%) [2, 8]: 14% [compound entry A, 2021-10] and 3% [compound entry B, 2021-10]; Population Pyknosed Nuclei (%) [2, 8]: 17% [compound entry A, 2021-10] and 5% [compound entry B, 2021-10]; Population Apoptotic (%) [2, 11]: 28% [compound entry A, 2021-10] and 8% [compound entry B, 2021-10]; Population Fragmented Nuclei (%) [2, 11]: 5% [compound entry A, 2021-10] and 22% [compound entry B, 2021-10]; Population Mitochondria Different-Phenotype (%) [2, 11]: 21% [compound entry A, 2021-10] and 2% [compound entry B, 2021-10]; Population Tubulin-Different-Phenotype (%) [2, 11]: 62% [compound entry A, 2021-10] and 10% [compound entry B, 2021-10]; Population Fragmented Nuclei (%) [3, 4]: 4% [compound entry A, 2021-10] and 22% [compound entry B, 2021-10]; Population Membrane Permeable-Phenotype (%) [3, 9]: 2% [compound entry A, 2021-10] and 16% [compound entry B, 2021-10]; Population Membrane Permeable-Phenotype (%) [3, 5]: 38% [compound entry A, 2021-10] and 12% [compound entry B, 2021-10]; Population Fragmented Nuclei (%) [3, 10]: 44% [compound entry A, 2021-10] and 10% [compound entry B, 2021-10]; Population Mitochondria Different-Phenotype (%) [3, 10]: 9% [compound entry A, 2021-10] and 28% [compound entry B, 2021-10]; Population Fragmented Nuclei (%) [3, 6]: 5% [compound entry A, 2021-10] and 22% [compound entry B, 2021-10]; Population Membrane Permeable-Phenotype (%) [3, 6]: 7% [compound entry A, 2021-10] and 40% [compound entry B, 2021-10]; Population Apoptotic (%) [3, 7]: 0% [compound entry A, 2021-10] and 65% [compound entry B, 2021-10]; Population Membrane Permeable-Phenotype (%) [3, 7]: 1% [compound entry A, 2021-10] and 38% [compound entry B, 2021-10]; Population Pyknosed Nuclei (%) [3, 7]: 1% [compound entry A, 2021-10] and 21% [compound entry B, 2021-10]; Population Fragmented Nuclei (%) [3, 8]: 18% [compound entry A, 2021-10] and 5% [compound entry B, 2021-10]; Population Hoechst High Intensity Objects (%) [3, 8]: 10% [compound entry A, 2021-10] and 2% [compound entry B, 2021-10]; Population Membrane Permeable-Phenotype (%) [3, 8]: 43% [compound entry A, 2021-10] and 8% [compound entry B, 2021-10]; Population Pyknosed Nuclei (%) [3, 8]: 30% [compound entry A, 2021-10] and 5% [compound entry B, 2021-10]; Population Fragmented Nuclei (%) [3, 11]: 47% [compound entry A, 2021-10] and 2% [compound entry B, 2021-10]; Population Healthy Nuclei (%) [3, 11]: 29% [compound entry A, 2021-10] and 91% [compound entry B, 2021-10]; Population Pyknosed Nuclei (%) [3, 11]: 22% [compound entry A, 2021-10] and 6% [compound entry B, 2021-10]

Question: With C#Cc1cccc(Nc2ncnc3cc(OCCOC)c(OCCOC)cc23)c1 [ERLOTINIB] as the compound, how does the “Population Membrane Permeable-Phenotype (%)” value [1, 5] read?
Answer: 27%, 30%, 5%

Question: What about the “Population Mitochondria Different-Phenotype (%)” value [1, 5] of the same compound?
Answer: 22%, 4%, 2%

Question: What about the “Population Tubulin-Different-Phenotype (%)” value [1, 5] of the same compound?
Answer: 95%, 73%, 14%

Question: And the “Population Apoptotic (%)” value [1, 10]?
Answer: 28%, 70%, 100%

Question: What about the “Population Fragmented Nuclei (%)” value [1, 10] of the same compound?
Answer: 61%, 50%, 16%

Question: And the “Population Healthy Nuclei (%)” value [1, 10]?
Answer: 22%, 33%, 80%

Question: And the “Population Hoechst High Intensity Objects (%)” value [1, 10]?
Answer: 42%, 33%, 8%

Question: And the “Population Mitochondria Different-Phenotype (%)” value [1, 10]?
Answer: 20%, 14%, 72%

Question: What about the “Population Mitotic Cells (%)” value [1, 10] of the same compound?
Answer: 71%, 30%, 0%

Question: And the “Population Pyknosed Nuclei (%)” value [1, 10]?
Answer: 15% and 2%

Question: And the “Population Tubulin-Different-Phenotype (%)” value [1, 10]?
Answer: 50%, 23%, 86%

Question: What about the “Total Cell Count” value [1, 10] of the same compound?
Answer: 77, 95, 1335

Question: And the “Population Membrane Permeable-Phenotype (%)” value [1, 8]?
Answer: 30%, 13%, 5%

Question: And the “Population Mitochondria Different-Phenotype (%)” value [1, 8]?
Answer: 39%, 12%, 2%

Question: And the “Population Tubulin-Different-Phenotype (%)” value [1, 8]?
Answer: 84%, 79%, 7%

Question: And the “Population Fragmented Nuclei (%)” value [1, 11]?
Answer: 51%, 66%, 16%

Question: And the “Population Healthy Nuclei (%)” value [1, 11]?
Answer: 37%, 16%, 66%

Question: And the “Population Membrane Permeable-Phenotype (%)” value [1, 11]?
Answer: 31%, 0%, 14%

Question: What about the “Population Mitochondria Different-Phenotype (%)” value [1, 11] of the same compound?
Answer: 9%, 28%, 75%

Question: And the “Population Mitotic Cells (%)” value [1, 11]?
Answer: 0%, 42%, 25%

Question: And the “Population Tubulin-Different-Phenotype (%)” value [1, 11]?
Answer: 22%, 71%, 87%

Question: What about the “Total Cell Count” value [1, 11] of the same compound?
Answer: 81, 68, 1359

Question: What about the “Population Mitochondria Different-Phenotype (%)” value [2, 5] of the same compound?
Answer: 97%, 16%, 6%

Question: And the “Population Pyknosed Nuclei (%)” value [2, 5]?
Answer: 64%, 22%, 15%

Question: And the “Population Tubulin-Different-Phenotype (%)” value [2, 5]?
Answer: 91%, 39%, 3%

Question: What about the “Population Apoptotic (%)” value [2, 10] of the same compound?
Answer: 50%, 12%, 5%

Question: And the “Population Healthy Nuclei (%)” value [2, 10]?
Answer: 25%, 85%, 86%

Question: And the “Population Membrane Permeable-Phenotype (%)” value [2, 10]?
Answer: 16% and 2%

Question: And the “Population Mitochondria Different-Phenotype (%)” value [2, 10]?
Answer: 86% and 22%

Question: And the “Population Pyknosed Nuclei (%)” value [2, 10]?
Answer: 62%, 8%, 5%

Question: And the “Population Tubulin-Different-Phenotype (%)” value [2, 10]?
Answer: 97%, 72%, 7%

Question: What about the “Total Cell Count” value [2, 10] of the same compound?
Answer: 148, 1179, 1766

Question: What about the “Population Apoptotic (%)” value [2, 8] of the same compound?
Answer: 70%, 31%, 21%

Question: What about the “Population Membrane Permeable-Phenotype (%)” value [2, 8] of the same compound?
Answer: 0%, 26%, 12%

Question: What about the “Population Mitochondria Different-Phenotype (%)” value [2, 8] of the same compound?
Answer: 100%, 13%, 5%

Question: And the “Population Pyknosed Nuclei (%)” value [2, 8]?
Answer: 58%, 17%, 9%

Question: And the “Population Tubulin-Different-Phenotype (%)” value [2, 8]?
Answer: 100%, 59%, 8%

Question: What about the “Population Apoptotic (%)” value [2, 11] of the same compound?
Answer: 69%, 6%, 5%

Question: What about the “Population Fragmented Nuclei (%)” value [2, 11] of the same compound?
Answer: 2% and 27%

Question: And the “Population Membrane Permeable-Phenotype (%)” value [2, 11]?
Answer: 10%, 24%, 6%

Question: And the “Population Mitochondria Different-Phenotype (%)” value [2, 11]?
Answer: 89%, 14%, 2%

Question: And the “Population Mitotic Cells (%)” value [2, 11]?
Answer: 30%, 93%, 94%

Question: What about the “Population Pyknosed Nuclei (%)” value [2, 11] of the same compound?
Answer: 59%, 7%, 2%

Question: And the “Population Tubulin-Different-Phenotype (%)” value [2, 11]?
Answer: 96%, 83%, 9%

Question: And the “Total Cell Count” value [2, 11]?
Answer: 146, 1531, 2984

— ChEMBL document CHEMBL4689842, “EUbOPEN Chemogenomics Library wave 1” (2021)
